According to publication PMC11984960:
These are yes or no findings as the source states them, for the method shown. Binding seen in cells or lysates may run through a third protein. Some entries that bind do so weakly or less than the wild type. Tags and fused reporters may be left off the sequences shown.

Sequences of proteins named here, by UniProt entry; tags and fusion partners are left off.
UniProt Q96ST8: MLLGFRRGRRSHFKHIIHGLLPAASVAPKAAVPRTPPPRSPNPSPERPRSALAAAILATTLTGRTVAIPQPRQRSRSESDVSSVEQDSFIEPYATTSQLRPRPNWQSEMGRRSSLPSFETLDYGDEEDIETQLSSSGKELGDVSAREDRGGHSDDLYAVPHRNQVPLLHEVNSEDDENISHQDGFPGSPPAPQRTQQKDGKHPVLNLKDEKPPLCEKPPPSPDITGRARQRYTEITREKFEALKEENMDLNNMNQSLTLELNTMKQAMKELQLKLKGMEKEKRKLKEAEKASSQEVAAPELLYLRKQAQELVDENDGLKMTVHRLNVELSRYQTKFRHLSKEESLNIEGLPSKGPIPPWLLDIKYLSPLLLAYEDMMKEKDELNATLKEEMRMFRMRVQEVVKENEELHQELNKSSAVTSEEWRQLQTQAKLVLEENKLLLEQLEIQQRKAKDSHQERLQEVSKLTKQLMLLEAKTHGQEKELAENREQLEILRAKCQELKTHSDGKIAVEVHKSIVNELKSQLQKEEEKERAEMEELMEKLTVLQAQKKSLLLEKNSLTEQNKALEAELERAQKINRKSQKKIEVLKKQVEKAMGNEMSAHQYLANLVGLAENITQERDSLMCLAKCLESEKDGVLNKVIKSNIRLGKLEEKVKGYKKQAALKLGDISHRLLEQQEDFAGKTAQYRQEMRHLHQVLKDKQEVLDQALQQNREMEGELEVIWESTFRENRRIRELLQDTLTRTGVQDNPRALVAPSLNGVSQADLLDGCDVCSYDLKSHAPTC
UniProt Q9HBI5: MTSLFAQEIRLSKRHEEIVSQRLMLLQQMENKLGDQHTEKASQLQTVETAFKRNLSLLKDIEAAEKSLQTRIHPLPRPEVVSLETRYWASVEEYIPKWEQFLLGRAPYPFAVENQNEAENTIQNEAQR

T1: N-terminally HA-tagged FGFR1OP (UniProt O95684)
T1 sequence: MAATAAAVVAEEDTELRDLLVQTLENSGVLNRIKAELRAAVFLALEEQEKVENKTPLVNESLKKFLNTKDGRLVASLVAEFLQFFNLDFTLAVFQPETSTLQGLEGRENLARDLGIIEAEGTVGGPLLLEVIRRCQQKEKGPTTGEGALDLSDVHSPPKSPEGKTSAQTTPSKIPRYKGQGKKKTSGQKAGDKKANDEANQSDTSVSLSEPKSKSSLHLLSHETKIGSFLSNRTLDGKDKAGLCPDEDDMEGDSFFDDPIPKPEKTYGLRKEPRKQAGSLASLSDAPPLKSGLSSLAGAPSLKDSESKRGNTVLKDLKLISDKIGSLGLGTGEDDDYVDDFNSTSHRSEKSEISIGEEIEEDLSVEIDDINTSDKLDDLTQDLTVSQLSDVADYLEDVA


Columns and labels:
[1] = target: N-terminally HA-tagged CEP89 (human) (UniProt Q96ST8); test: pull-down; in vitro binding assay by the original protocol: HA-tagged and MYC-tagged proteins translated in separate reactions, not co-translated; captured by HA-agarose beads
[2] = target: N-terminally HA-tagged CEP89 (human) (UniProt Q96ST8); test: pull-down; in vitro binding assay: HA-tagged and MYC-tagged proteins co-translated in reticulocyte lysate, captured by HA-agarose beads; 25 mM HEPES-NaOH pH 7.5, 500 mM NaCl, 1 mM CaCl2, 0.1% Triton X-100; 2 hr at 4°C; immunoblot
[3] = target: T1, N-terminally HA-tagged FGFR1OP; test: pull-down; in vitro binding assay by the original protocol: HA-tagged and MYC-tagged proteins translated in separate reactions, not co-translated; captured by HA-agarose beads
[4] = target: N-terminally HA-tagged CEP15 (human) (UniProt Q9HBI5); test: as above
[5] = target: T1, N-terminally HA-tagged FGFR1OP; test: pull-down; in vitro binding assay: HA-tagged and MYC-tagged proteins co-translated in reticulocyte lysate, captured by HA-agarose beads; 25 mM HEPES-NaOH pH 7.5, 500 mM NaCl, 1 mM CaCl2, 0.1% Triton X-100; 2 hr at 4°C; immunoblot
[6] = target: N-terminally HA-tagged CEP15 (human) (UniProt Q9HBI5); test: as above

Row | binding [1] | binding [2] | binding [3] | binding [4] | binding [5] | binding [6] | Molecule
1 | binds | binds |  |  |  |  | N-terminally MYC-tagged CEP15 (from UniProt Q9HBI5 1-128)
2 | no binding | no binding | binds | no binding | binds | no binding | N-terminally MYC-tagged CEP350 fragment (2470–2836 a.a.) (domain or fragment, UniProt Q5VT06 2470-2836) RSDVEHEQQVTESPSLASVPTADELFDFHIGDRVLIGNVQPGILRFKGETSFAKGFWAGVELDKPEGNNNGTYDGIAYFECKEKHGIFAPPQKISHIPENFDDYVDINEDEDCYSDERYQCYNQEQNDTEGPKDREKDVSEYFYEKSLPSVNDIEASVNRSRSLKIETDNVQDISGVLEAHVHQQSSVDSQISSKENKDLISDATEKVSIAAEDDTLDNTFSEELEKQQQFTEEEDNLYAEASEKLCTPLLDLLTREKNQLEAQLKSSLNEEKKSKQQLEKISLLTDSLLKVFVKDTVNQLQQIKKTRDEKIQLSNQELLGDDQKKVTPQDLSQNVEEQSPSISGCFLSSELEDEKEEISSPDMCPR
